{"source": "the RNAGym collection of RNA variant scans (doi:10.7554/elife.90254)", "parents": {"B1": {"name": "LINE1-full (parent)", "chain": "UACGUAGGUGGUUUUCCCCUGAUAGUGCUAAGGGGGCCUGGAAGUUUGGACUGGGCAGAGCUCAACACAGCGUGGCAAAGUGGCUGUGGCUAGACUGCCUCUCUGGAUUCCUCGUCACUCAGCAGGGCAUCUCUGAGAGAAAUGCC"}}, "note": "The source gives no read counts; variants with many changes may rest on few reads."}
{"variants_of": "B1", "experiment": "self-cleavage, relative activity (ratio to wild type); higher = more cleavage; in vitro, sequencing; the parent is a self-cleaving ribozyme"}
{"variant": "A31G C38U G55A A65G", "self-cleavage": 0.06}
{"variant": "U73A U96A U102A A142G", "self-cleavage": 0.02}
{"variant": "A22G G58U A79G", "self-cleavage": 0.08}
{"variant": "U15C U52A A129U A138G", "self-cleavage": 1.81}
{"variant": "A24U U102A A142G", "self-cleavage": 0.87}
{"variant": "A69G G82A A138G", "self-cleavage": 0.63}
{"variant": "U26C C63G U104A", "self-cleavage": 0.13}
{"variant": "A42G A121C G125A", "self-cleavage": 2.37}
{"variant": "U14C A79G G125U A140G", "self-cleavage": 0.63}
{"variant": "G74U A92G U108C A124U", "self-cleavage": 0.14}
{"variant": "A64U A107U A138G", "self-cleavage": 0.54}
{"variant": "U13C U100C A136G", "self-cleavage": 0.92}
{"variant": "U12G U112C U143C", "self-cleavage": 1.43}
{"variant": "A30G G32A A129G", "self-cleavage": 2.35}
{"variant": "A59G C71A U96C", "self-cleavage": 0.02}
{"variant": "U14C U62C G74A", "self-cleavage": 0.05}
{"variant": "C19U U45C A57U", "self-cleavage": 0.17}
{"variant": "C18U U47A U130C", "self-cleavage": 1.09}
{"variant": "A6G A65G C84G U100C", "self-cleavage": 0.66}
{"variant": "A2G U46C A57G", "self-cleavage": 0}
{"variant": "U26C A77U U109A U132A A138G", "self-cleavage": 0.5}
{"variant": "A77G U115C A117U A140G", "self-cleavage": 2.87}
{"variant": "A64G U87C A142G", "self-cleavage": 0.38}
{"variant": "G34A U46C A69G", "self-cleavage": 0.86}
{"variant": "U9A C18U U29C A57G A59U U73C", "self-cleavage": 0}
{"variant": "U52C A78G C145A", "self-cleavage": 1.61}
{"variant": "U13A U115C A117C A140G", "self-cleavage": 1.6}
{"variant": "U46C A69U A78C U85C G137A", "self-cleavage": 0.11}
{"variant": "U12G U29C C84A", "self-cleavage": 0.14}
{"variant": "U13C A31U U46C U104C U115G", "self-cleavage": 2.63}
{"variant": "C19A C37G U100C", "self-cleavage": 0.96}
{"variant": "A43U C98U C118U A140U", "self-cleavage": 0.22}
{"variant": "A30G G49U U132C U134C", "self-cleavage": 1.09}
{"variant": "C51A U87C A107G", "self-cleavage": 0}
{"variant": "U9A U115C U130C", "self-cleavage": 0}
{"variant": "U5C A136G A140G", "self-cleavage": 2.51}
{"variant": "U9A U47A U132C A142G", "self-cleavage": 0.81}
{"variant": "A64G A77U C145G", "self-cleavage": 0.21}
{"variant": "U26C A57G A77G U112A", "self-cleavage": 0.89}
{"variant": "A43U U45A U119C", "self-cleavage": 1.84}
{"variant": "G10A A31U G88A", "self-cleavage": 0.12}
{"variant": "C3U A24U A77G U130C", "self-cleavage": 0.92}
{"variant": "U9A C19U C28A U29C U47A U115G U132G", "self-cleavage": 0.56}
{"variant": "A59U U62C A92G", "self-cleavage": 0.11}
{"variant": "U9A U20C G41U", "self-cleavage": 0.66}
{"variant": "A22G A31G G34A U109C A121G A129G", "self-cleavage": 0}
{"variant": "U9C U12C A30G", "self-cleavage": 0.61}
{"variant": "U23A U46A G86U A94G A124U", "self-cleavage": 0.08}
{"variant": "U26C U119C U132C", "self-cleavage": 2.07}
{"variant": "A57U A65G U130A", "self-cleavage": 0.13}
{"variant": "U9C U29C A138G", "self-cleavage": 0.79}
{"variant": "U5C A65G A142G", "self-cleavage": 0.11}
{"variant": "A30G A59G A129G", "self-cleavage": 0.8}
{"variant": "A22U U85C U143C", "self-cleavage": 0.45}
{"variant": "U29C U62A A129G", "self-cleavage": 0.14}
{"variant": "U15C A57G G89U A138G", "self-cleavage": 0.04}
{"variant": "C3U G40A U104A G137U", "self-cleavage": 0.95}
{"variant": "U9A U87C A140G A142G", "self-cleavage": 0.29}
{"variant": "U9C U29C U62A", "self-cleavage": 0.14}
{"variant": "A67G U81C G127C", "self-cleavage": 1.23}
{"variant": "G40A U62C A107U", "self-cleavage": 0.02}
{"variant": "U39C A79G C113U", "self-cleavage": 1.34}
{"variant": "U9C U14C A129G A140G", "self-cleavage": 2.55}
{"variant": "U12C A43U U62C", "self-cleavage": 0.09}
{"variant": "A2G U13C U26C", "self-cleavage": 0.35}
{"variant": "C38A U62A A92U", "self-cleavage": 0.03}
{"variant": "U29C G53A A136G", "self-cleavage": 1.46}
{"variant": "U12C U104C A124U A129G", "self-cleavage": 2.3}
{"variant": "A2G A30G A78G A140G", "self-cleavage": 0.4}
{"variant": "U29A A64G U100C", "self-cleavage": 0.52}
{"variant": "A6G U62C A77U U102A", "self-cleavage": 0}
{"variant": "C63U A77G U119A A129G", "self-cleavage": 0.51}
{"variant": "A43G A79U A138G A141G", "self-cleavage": 1.7}
{"variant": "U26C G33A A57G G74A A121U", "self-cleavage": 0.97}
{"variant": "U26C A30G U39A U62C", "self-cleavage": 1.58}
{"variant": "U9A U39A A129G", "self-cleavage": 1.05}
{"variant": "U14A G27A U96A", "self-cleavage": 0.15}
{"variant": "A77G U81A A94G", "self-cleavage": 1.6}
{"variant": "U52A A59G A64G", "self-cleavage": 0.21}
{"variant": "A6G A65G U109C A117G", "self-cleavage": 0}
{"variant": "G25U A64G U104C", "self-cleavage": 0.2}
{"variant": "U15A G33U A59U U119C", "self-cleavage": 1.21}
{"variant": "A30G U87C A138G", "self-cleavage": 0.3}
{"variant": "A22U A42G U108C", "self-cleavage": 1.26}
{"variant": "A69G A92G A94G C113U A129G", "self-cleavage": 0}
{"variant": "A2G U20C U45C U47C A129G", "self-cleavage": 1.53}
{"variant": "U52A A59G A67G", "self-cleavage": 0}
{"variant": "C19U U23A A140G", "self-cleavage": 0.55}
{"variant": "A2U U20A U39C U108A", "self-cleavage": 0.8}
{"variant": "U23C U85C A140G A142G", "self-cleavage": 0.09}
{"variant": "A67G A124U A136G", "self-cleavage": 0.72}
{"variant": "U14A U45A A138G", "self-cleavage": 1}
{"variant": "G7C U87A A117U", "self-cleavage": 0.04}
{"variant": "U9C A117U U130A", "self-cleavage": 1.67}
{"variant": "G54A U73C A129G", "self-cleavage": 1.22}
{"variant": "C51U C63A U96C", "self-cleavage": 0.03}
{"variant": "A50G U96A U115A", "self-cleavage": 0.02}
{"variant": "U47A U91C U102C", "self-cleavage": 0.78}
{"variant": "C3A U13C U39C U62A", "self-cleavage": 0.16}
{"variant": "U9C U47A A124G", "self-cleavage": 0.33}
{"variant": "G48A U132C A136G", "self-cleavage": 1.6}
{"variant": "G53A U115C G144A", "self-cleavage": 1.35}
{"variant": "U1A A50G G97A", "self-cleavage": 0.11}
{"variant": "A50G A129G U132C", "self-cleavage": 0.99}
{"variant": "U45C A77U U132C A138G A141G", "self-cleavage": 0.82}
{"variant": "U9A U52G U62C", "self-cleavage": 0}
{"variant": "A42G A107G A140G", "self-cleavage": 2.45}
{"variant": "U15C U130C A136G", "self-cleavage": 1.52}
{"variant": "U14C U47C U104C", "self-cleavage": 1.31}
{"variant": "U15C U52A U91C", "self-cleavage": 0}
{"variant": "A42G U46A U134A C146U", "self-cleavage": 1.05}
{"variant": "A22G A140G A142G", "self-cleavage": 1.33}
{"variant": "C113U A121G U130A", "self-cleavage": 1.65}
{"variant": "A6G U23C U109C", "self-cleavage": 1.15}
{"variant": "G34A U96C A140G", "self-cleavage": 0.06}
{"variant": "U5C U14C U39C", "self-cleavage": 0.71}
{"variant": "U15C A43U U46A", "self-cleavage": 0.96}
{"variant": "U26G U47A C116U", "self-cleavage": 1.01}
{"variant": "U23C A31G A117U A138G", "self-cleavage": 1.2}
{"variant": "U1A U14C U62A A64C U104A A142G", "self-cleavage": 0.34}
{"variant": "U29A U109G A117U", "self-cleavage": 0.42}
{"variant": "G72A U112C A136G", "self-cleavage": 1.3}
{"variant": "A59G A129C A140G", "self-cleavage": 0.05}
{"variant": "U52A U96A U102C U115C U119A", "self-cleavage": 0}
{"variant": "A69G U112C A141G", "self-cleavage": 0.42}
{"variant": "U9C G34A U96C", "self-cleavage": 0.26}
{"variant": "U9C U81C C90A", "self-cleavage": 0}
{"variant": "G34U A59G U62A U96C", "self-cleavage": 0}
{"variant": "U85C A129U U134C", "self-cleavage": 0.15}
{"variant": "A6G U73C G139U", "self-cleavage": 0}
{"variant": "G35A G36A A57G U115C A138G", "self-cleavage": 1.11}
{"variant": "U13C A50G A59G U112C U119C", "self-cleavage": 0}
{"variant": "G33A A64G U112A G114A", "self-cleavage": 0.19}
{"variant": "A2G U47C U132C", "self-cleavage": 1.64}
{"variant": "G60A U115C A129G", "self-cleavage": 0.01}
{"variant": "U109C U112C U130C", "self-cleavage": 0}
{"variant": "A43G A78G U134A", "self-cleavage": 1.16}
{"variant": "C19U U39C A77G G105A U112C", "self-cleavage": 1.69}
{"variant": "U45C A59G A69U A129G", "self-cleavage": 0}
{"variant": "U9A A42G U115A A136U A140G", "self-cleavage": 2.02}
{"variant": "U13C A64G U73A A141C", "self-cleavage": 0.44}
{"variant": "A22G U96A A121U", "self-cleavage": 0.23}
{"variant": "U12C A31G U85C", "self-cleavage": 1.12}
{"variant": "U15G U62C A124G", "self-cleavage": 0}
{"variant": "U15C A22G G126A", "self-cleavage": 1.18}
{"variant": "G93A U115A A117U A142G", "self-cleavage": 0.04}
{"variant": "U87C U115A U143A", "self-cleavage": 0.19}
{"variant": "U12C A31G G36C A50G", "self-cleavage": 1.67}
{"variant": "A6U U14A U85C U109C", "self-cleavage": 0}
{"variant": "U39A G54A A64G", "self-cleavage": 0.27}
{"variant": "U12C U52A C110U", "self-cleavage": 2.03}
{"variant": "A64U A121G U134C", "self-cleavage": 0.42}
{"variant": "U1C U46C U52C", "self-cleavage": 0}
{"variant": "U12C U62A A64U U96C U100C", "self-cleavage": 0.04}
{"variant": "A43G G137A A141G", "self-cleavage": 1.01}
{"variant": "U47A A77U U134C", "self-cleavage": 1.56}
{"variant": "U14C U39C U46A", "self-cleavage": 1.53}
{"variant": "G86A U115C A138G", "self-cleavage": 0.07}
{"variant": "U15C A50G A77U A94U A136G", "self-cleavage": 0.13}
{"variant": "U20C U29A U132A", "self-cleavage": 1.6}
{"variant": "A22U A59U A65G A138G", "self-cleavage": 0.07}
{"variant": "U9A G25A A69G", "self-cleavage": 0}
{"variant": "U81A U104C U132C", "self-cleavage": 2.68}
{"variant": "U23C G33A G72A A121C A142G", "self-cleavage": 1.35}
{"variant": "U9A G41U A42U", "self-cleavage": 0.85}
{"variant": "A59U U108C A136G", "self-cleavage": 0.2}
{"variant": "A31G G54A U81C A94U A141G", "self-cleavage": 0}
